Data taken from article PMC2841195.
These are yes or no findings as the source states them, for the method shown.

By UniProt entry, the sequences of proteins in these tests, tags left out. Residues count along the entry.
MOR second intracellular loop (IL2, residues 166-187), GAL4 DNA-binding domain fusion (P35372, residues 166-187): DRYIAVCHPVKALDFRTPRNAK
MOR third intracellular loop (IL3, residues 260-282), GAL4 DNA-binding domain fusion (P35372, residues 260-282): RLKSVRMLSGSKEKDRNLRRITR
MOR C-terminal domain (C-tail, residues 342-400), GAL4 DNA-binding domain fusion (P35372, residues 342-400): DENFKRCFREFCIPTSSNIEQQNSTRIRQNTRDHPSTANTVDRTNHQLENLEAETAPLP
UniProt Q9ULU8: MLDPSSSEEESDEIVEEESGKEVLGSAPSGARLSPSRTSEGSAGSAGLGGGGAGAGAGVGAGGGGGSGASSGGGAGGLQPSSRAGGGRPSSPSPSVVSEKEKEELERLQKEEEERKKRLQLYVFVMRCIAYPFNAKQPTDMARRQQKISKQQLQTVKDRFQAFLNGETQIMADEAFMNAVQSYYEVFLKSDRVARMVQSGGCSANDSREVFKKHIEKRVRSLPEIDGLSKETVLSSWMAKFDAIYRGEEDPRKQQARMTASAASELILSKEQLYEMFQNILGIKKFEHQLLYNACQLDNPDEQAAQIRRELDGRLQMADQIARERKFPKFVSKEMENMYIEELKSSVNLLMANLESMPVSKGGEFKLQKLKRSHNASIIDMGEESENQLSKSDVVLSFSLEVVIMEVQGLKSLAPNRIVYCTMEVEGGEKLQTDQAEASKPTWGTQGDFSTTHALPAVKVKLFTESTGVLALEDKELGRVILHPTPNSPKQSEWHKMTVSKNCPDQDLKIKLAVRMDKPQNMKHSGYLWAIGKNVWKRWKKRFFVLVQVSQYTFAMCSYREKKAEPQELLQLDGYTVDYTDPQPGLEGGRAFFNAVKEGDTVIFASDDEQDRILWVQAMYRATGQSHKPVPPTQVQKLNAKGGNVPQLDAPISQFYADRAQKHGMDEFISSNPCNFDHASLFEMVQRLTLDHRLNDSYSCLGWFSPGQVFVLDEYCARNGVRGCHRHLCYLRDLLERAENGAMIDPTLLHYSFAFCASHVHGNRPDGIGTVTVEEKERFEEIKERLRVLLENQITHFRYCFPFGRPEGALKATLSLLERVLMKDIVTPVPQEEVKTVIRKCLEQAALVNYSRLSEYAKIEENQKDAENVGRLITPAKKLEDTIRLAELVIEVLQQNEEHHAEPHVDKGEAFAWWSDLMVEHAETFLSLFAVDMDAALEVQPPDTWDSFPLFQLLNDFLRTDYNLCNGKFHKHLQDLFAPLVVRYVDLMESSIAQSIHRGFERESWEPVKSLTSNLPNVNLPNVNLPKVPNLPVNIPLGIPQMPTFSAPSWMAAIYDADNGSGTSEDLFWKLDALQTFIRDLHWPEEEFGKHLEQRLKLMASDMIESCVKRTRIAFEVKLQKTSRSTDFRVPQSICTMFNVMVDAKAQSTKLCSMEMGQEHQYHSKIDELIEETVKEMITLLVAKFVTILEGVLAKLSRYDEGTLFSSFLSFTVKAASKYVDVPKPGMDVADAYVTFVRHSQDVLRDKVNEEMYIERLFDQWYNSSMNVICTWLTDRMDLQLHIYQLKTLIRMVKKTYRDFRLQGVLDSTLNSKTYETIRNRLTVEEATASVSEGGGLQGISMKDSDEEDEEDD

What was measured:
Experiment in all cases: two-hybrid; directed conventional Y2H; MOR intracellular domains in GAL4 DNA-binding domain vector pAS2-1, GPR177-CT in GAL4 activation domain vector pACT2, S. cerevisiae MAV103, beta-galactosidase filter lift
[1] = target: MOR C-terminal domain (C-tail, residues 342-400), GAL4 DNA-binding domain fusion (human) (UniProt P35372)
[2] = target: MOR first intracellular loop (IL1, residues 97-103), GAL4 DNA-binding domain fusion (human) (UniProt P35372)
[3] = target: MOR second intracellular loop (IL2, residues 166-187), GAL4 DNA-binding domain fusion (human) (UniProt P35372)
[4] = target: MOR third intracellular loop (IL3, residues 260-282), GAL4 DNA-binding domain fusion (human) (UniProt P35372)

Measured: binding

Calcium-dependent activator protein for secretion (CAPS), full-length (from UniProt Q9ULU8 1-1353)
no binding: all assays above
